From the supplement of paper PMC3334620
In all, about 33,000 sequences were measured (“E-score (-0.5 to 0.5)”: median about -0.054, highest 2% from about 0.35 on). This is one part of the list.

Target: T1, Stb5 (UniProt P38699)
T1 sequence: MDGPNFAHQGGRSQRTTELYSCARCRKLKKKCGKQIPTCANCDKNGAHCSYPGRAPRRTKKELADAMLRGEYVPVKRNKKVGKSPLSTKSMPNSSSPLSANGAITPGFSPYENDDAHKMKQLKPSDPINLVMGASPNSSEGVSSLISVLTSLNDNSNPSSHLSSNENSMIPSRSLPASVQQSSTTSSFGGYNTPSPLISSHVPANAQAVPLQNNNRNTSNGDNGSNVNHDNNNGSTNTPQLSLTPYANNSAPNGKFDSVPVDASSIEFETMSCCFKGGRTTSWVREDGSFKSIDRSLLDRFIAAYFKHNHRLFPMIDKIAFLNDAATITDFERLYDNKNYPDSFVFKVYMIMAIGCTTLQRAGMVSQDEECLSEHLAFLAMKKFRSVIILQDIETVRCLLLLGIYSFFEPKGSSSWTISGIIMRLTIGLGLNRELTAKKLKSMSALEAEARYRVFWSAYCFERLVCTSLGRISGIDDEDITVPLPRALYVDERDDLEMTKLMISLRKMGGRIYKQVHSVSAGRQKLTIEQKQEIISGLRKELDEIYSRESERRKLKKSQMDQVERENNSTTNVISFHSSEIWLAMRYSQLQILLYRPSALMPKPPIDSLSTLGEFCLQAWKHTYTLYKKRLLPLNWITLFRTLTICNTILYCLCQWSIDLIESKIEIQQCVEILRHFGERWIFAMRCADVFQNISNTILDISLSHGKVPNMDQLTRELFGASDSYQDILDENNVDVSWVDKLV
Experiment: PBM E-score (8-mer binding enrichment) (E-score (-0.5 to 0.5)); higher = stronger / more preferred TF binding; most listed sequences are background and not binding sites
Conditions: protein concentration: 200 nM; construct: GST-full length
Method: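 Universal 'all 10-mer' protein binding microarrays (Agilent AMADID 015681) probed with GST-tagged S. cerevisiae TFs (full-length or DBD) made by in vitro transcription/translation (PURExpress), about 100-200 nM. Bound TF was detected with fluorescent anti-GST. Each ungapped 8-mer (which stands for itself and its reverse complement) is scored by the PBM enrichment score (E-score), a modified Wilcoxon-Mann-Whitney statistic from -0.5 to +0.5, computed with the Universal PBM Analysis Suite. Scale: above 0.35 generally sequence-specific binding.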

Sequence	PBM E-score
CCGGGATC	0.271
ATCGTGGG	-0.0717
TGTCCCAA	-0.0294
AGCCCGAT	0.328
ATAGTCTG	-0.219
CGTATCTC	0.136
AGCGGTAA	0.34
AGTTAGCA	-0.0967
ACTATACG	0.0851
ATAGGCAC	-0.0742
ACAATAGG	-0.0557
ACCAGAGG	-0.206
AATGCATA	-0.146
AATAAAGA	0.0352
ATAAGTCA	-0.166
TCTGAGAA	-0.317
ACTTATAA	0.186
CAAGCCCG	0.255
ATCGCGAG	-0.0644
AGTAGCAG	-0.241
GAAGTTAC	-0.044
GATTGTAC	-0.14
CCAATACA	-0.126
TACCAGCA	-0.165
ATCATTCG	-0.151

Sequence	PBM E-score
CACCATAA	-0.0593
GGGAGCAC	-0.00488
GTATTTTA	0.13
ACCTGTGA	-0.252
AGGTGTGG	-0.133
GTCTAGGA	-0.0791
AGATGGCG	0.0174
CAAGCCGC	0.00962
CCCTGCCC	-0.31
GCTTTGTA	-0.0417
ATTGCATG	-0.21
ACTTTGAG	-0.172
AGTAAATG	0.137
AACGATCC	-0.145
ACGGTACA	0.112
ATCCCGTC	0.262
CAGTCCTC	-0.284
AAGGGGGT	-0.0621
AATGGTCG	0.0414
TCATGAGA	-0.117
CAAAGGAG	-0.189
CATGACGA	-0.12
ATAAAGAG	-0.0867
AAACGTGT	-0.0456
GACGGCCA	0.0605

Sequence	PBM E-score
GCGCCGTA	0.253
CACTGATG	-0.213
CTCATGGA	-0.198
ATCCAATG	-0.285
AAGAGACC	0.0225
GGGATGTA	-0.0169
GGGGAAAC	0.24
GTATTGAC	0.0119
ACGACCGA	0.133
GACACTCC	-0.0416
CCAGGAGC	-0.0678
GACACATC	0.0343
AAGAGCCA	-0.192
CCTTTTAA	-0.0551
CTGCGATA	-0.101
TAAAGGGA	-0.0718
AGATACGG	0.17
AAGTCCGA	0.459
GATATAGC	0.265
CAAGCCCA	-0.213
CAATCGAA	-0.11
TAGAGGCA	-0.328
GTTTCTCA	-0.00586
AACTGGTG	-0.103
AAGCTGGA	-0.251

Sequence	PBM E-score
CACCATCA	-0.111
AACGTGAT	-0.138
CCATGGCG	0.128
CCGATTGA	0.201
CCAAAATC	0.00739
GCGCCACA	0.0131
AAATTTTA	-0.0381
AGACGCCC	0.0667
ATGTGCCA	-0.289
AATTACAG	0.0714
CCTATCCC	-0.0427
CTTAAAGC	-0.00953
ATCCTGAG	-0.196
CCACTGGA	-0.0858
GCATATCA	0.0781
GCCTTTCC	0.122
GGAAACCC	0.0625
GCGTTAAA	0.142
AAACCAAT	-0.0843
CAGCTAAA	-0.0749
CAACATGA	-0.0296
AGCAGTAT	-0.298
GGGGAGAC	0.0556
AACGTATT	0.0177
CTTCACGC	-0.0191

Sequence	PBM E-score
ATCCACTA	-0.0942
CTCCCGAA	-0.115
CACAGTGC	-0.011
AACTCAGA	-0.171
AAAATGCA	-0.0284
CCTTTCCG	0.145
CGAAAAAA	0.0463
ACGCTGCG	-0.0833
CTTACCTC	-0.0144
ATCCCAGC	-0.0779
CGCTGCAG	0.179
TCAGAGGA	-0.101
AAGTAGTC	-0.0712
CAAGGCCG	0.236
GATGTTAC	0.0742
GGCATAGA	0.06
AGCCACTC	-0.246
CGTCCCTC	0.0578
CCGTTTCC	0.238
AAGTGGCT	-0.164
GCAGACTA	-0.158
GGGATGGA	0.0483
CCGAAAGC	0.224
TAACGTGA	-0.0299
CATGTTCG	-0.0809

Sequence	PBM E-score
CGCTCAAG	0.0206
TCCCAACA	-0.108
CCTCAACA	-0.061
ACCCAGTC	-0.0393
CGAAGCAA	-0.131
CAGTTCCA	-0.105
CACACTGC	-0.0183
AGTCCTAT	-0.0967
AAAGTTCG	-0.114
CGAACCAA	-0.0395
GGACTTAA	0.373
CCCGCGAG	0.275
AAAATCAC	-0.092
AGTCAAGA	-0.214
AAGGTGAA	-0.00388
GTAGAAAC	0.123
AAAATTTT	-0.002
ATTTGCTA	-0.0128
AACCGTAG	-0.118
CGATCGAC	0.0669
ATTCAATA	-0.0406
TAGCATGA	-0.178
TATTCTAA	0.0373
TTCATCAA	-0.0727
AGGATAAG	0.0121

Sequence	PBM E-score
CACCTGAG	-0.257
CGAATATC	-0.0932
TGGGTGAA	0.0477
GACCAGGA	-0.127
GCGGCTAA	0.217
ACAGGAAT	-0.225
AATTATAG	-0.079
GCGTATGA	0.0661
AACCAATG	-0.285
AAGCCAAC	-0.172
ATCAACAT	-0.262
AGGTAAGA	-0.126
CTAGCGAG	-0.263
CAGCGTGC	0.0885
TGCCTCCA	-0.237
ATTTTCAC	0.0625
CCAGTCCC	-0.0931
TTCGTCAA	-0.226
CCCCATGC	0.0392
AAGAACGT	-0.222
CTACTATC	0.111
ATCAGTAC	-0.0547
